The record followed here is paper PMC4336329 (PLoS ONE, 2015).

SMILES strings stand for the structures. The whole screen tested about 310,000 compounds, of which about 14,000 (4.5%) showed an effect of 50% or more. The effect is printed as a negative number. The list shows a part of the results.
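Also: peak tail current of the secondary pulse compared with the same well before compound.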

In this test the target is human ether-à-go-go-related gene (hERG) potassium channel (human, UniProt Q12809). The test can be described thus: primary screen, population patch clamp on CHO cells stably expressing hERG.
Chain of human ether-à-go-go-related gene (hERG) potassium channel (Q12809 whole entry, looked up): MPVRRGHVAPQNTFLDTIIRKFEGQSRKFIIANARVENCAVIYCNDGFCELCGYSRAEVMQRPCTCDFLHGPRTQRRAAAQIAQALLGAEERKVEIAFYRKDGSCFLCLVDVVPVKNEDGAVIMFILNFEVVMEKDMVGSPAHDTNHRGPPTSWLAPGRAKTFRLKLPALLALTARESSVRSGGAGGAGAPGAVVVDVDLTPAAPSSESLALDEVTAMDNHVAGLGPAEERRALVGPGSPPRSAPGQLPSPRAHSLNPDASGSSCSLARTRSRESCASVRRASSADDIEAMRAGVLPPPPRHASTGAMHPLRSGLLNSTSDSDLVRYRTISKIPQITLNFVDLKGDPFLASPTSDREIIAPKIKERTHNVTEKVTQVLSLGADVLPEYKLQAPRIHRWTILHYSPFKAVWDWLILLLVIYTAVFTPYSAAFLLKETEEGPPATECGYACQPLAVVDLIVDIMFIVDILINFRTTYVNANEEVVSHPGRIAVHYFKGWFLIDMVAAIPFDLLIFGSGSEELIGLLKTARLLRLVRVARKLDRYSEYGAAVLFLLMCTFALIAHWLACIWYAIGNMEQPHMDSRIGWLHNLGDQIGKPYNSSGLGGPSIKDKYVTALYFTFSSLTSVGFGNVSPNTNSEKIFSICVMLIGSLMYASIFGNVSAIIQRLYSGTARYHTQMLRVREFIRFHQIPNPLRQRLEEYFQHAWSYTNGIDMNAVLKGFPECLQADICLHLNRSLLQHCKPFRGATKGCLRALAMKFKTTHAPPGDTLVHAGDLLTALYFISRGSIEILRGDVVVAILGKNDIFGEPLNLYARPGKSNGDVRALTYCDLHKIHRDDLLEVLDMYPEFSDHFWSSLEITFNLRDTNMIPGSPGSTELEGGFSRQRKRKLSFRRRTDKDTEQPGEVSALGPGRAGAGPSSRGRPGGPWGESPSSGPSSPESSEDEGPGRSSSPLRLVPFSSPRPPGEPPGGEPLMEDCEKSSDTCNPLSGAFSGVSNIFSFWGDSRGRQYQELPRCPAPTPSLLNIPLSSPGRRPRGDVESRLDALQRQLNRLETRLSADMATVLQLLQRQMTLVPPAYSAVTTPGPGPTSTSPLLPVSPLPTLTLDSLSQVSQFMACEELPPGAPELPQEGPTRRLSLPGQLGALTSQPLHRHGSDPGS
`CCOC(=O)COc1c(Cl)cc(/C=C2\N=C(C)OC2=O)cc1OC`: the “hERG current change (%, negative = inhibition) at 10uM” value turned out to be 10.7%.

`COC(=O)c1c(C)[nH]c(C(C)=O)c1C`: the “hERG current change (%, negative = inhibition) at 10uM” value worked out at 4.91%.

`CCn1c2ccc(/C(C)=N\O)cc2c2cc(/C(C)=N\O)ccc21`: the “hERG current change (%, negative = inhibition) at 10uM” value is on record as 10.2%.

Consider `Cc1cc(C(=O)N/N=C/c2ccc(C)s2)n[nH]1`, for which the “hERG current change (%, negative = inhibition) at 10uM” value is reported as 19.9%.

In the case of `CSc1ccc(/C=N/N2CCN(Cc3ccccc3Cl)CC2)cc1`, the “hERG current change (%, negative = inhibition) at 10uM” value is recorded as 21.3%.

Regarding `Cc1ccc(S(=O)(=O)N2CCN(C(=O)c3cccs3)CC2)cc1C`, the “hERG current change (%, negative = inhibition) at 10uM” value was -18.1%.

Turning to `Cc1c(CC(=O)NCC(C)C)c(=O)oc2cc3c(cc12)CCC(C)(C)O3`, the “hERG current change (%, negative = inhibition) at 10uM” value worked out at 10.6%.

Turning to `COC(=O)C1CSC(C(=O)OC)N1C(=O)Nc1ccccc1` (stereo not drawn), the “hERG current change (%, negative = inhibition) at 10uM” value is recorded as 3.88%.

Take `CC(C)c1ccc(NC(=O)C2CC(=O)N(C3CCCC3)C2)cc1` (stereo not drawn): the “hERG current change (%, negative = inhibition) at 10uM” value was found to be 3.66%.

In the case of `CN(C)c1ccc(NC(=S)NC23CC4CC(CC(C4)C2)C3)cc1`, the “hERG current change (%, negative = inhibition) at 10uM” value worked out at 27.6%.

`Cn1c(N)nc2nc(CCc3ccccc3)c(=O)[nH]c2c1=O`: the “hERG current change (%, negative = inhibition) at 10uM” value was found to be 12.6%.

Regarding `NS(=O)(=O)c1ccc(CCNC(=O)C2CCCO2)cc1` (stereo not drawn), the “hERG current change (%, negative = inhibition) at 10uM” value worked out at 16.3%.

Regarding `NC(=O)NC(CC(=O)N1CCc2ccccc2C1)c1ccc(Cl)cc1` (stereo not drawn), the “hERG current change (%, negative = inhibition) at 10uM” value was 2.09%.

As for `CCn1c(=O)c2sccc2n(Cc2ccccc2)c1=O`, the “hERG current change (%, negative = inhibition) at 10uM” value was -3.52%.

As to `NS(=O)(=O)c1cccc(NC(=O)c2ccno2)c1`, the “hERG current change (%, negative = inhibition) at 10uM” value came to 11%.

With `CCOC(=O)C1CCN(C(=O)CN(C)S(=O)(=O)c2ccc3c(c2)c(=O)n(C)c(=O)n3C)CC1`, the “hERG current change (%, negative = inhibition) at 10uM” value was -1.96%.

In the case of `COc1ccc(S(=O)(=O)n2nc(OC(C)=O)cc2N)cc1`, the “hERG current change (%, negative = inhibition) at 10uM” value was 4.23%.

As for `CCn1c(COc2cc(C)ccc2C(C)C)nnc1SCC(=O)Nc1nccs1`, the “hERG current change (%, negative = inhibition) at 10uM” value is given as 5.52%.

Turning to `O=C(NCCCN1CCCC1=O)c1ccc2c(=O)n(-c3ccccc3F)c(=S)[nH]c2c1`, the “hERG current change (%, negative = inhibition) at 10uM” value is recorded as 21.8%.

Take `O=c1nc(N2CCCC2)nc(Nc2ccccc2)[nH]1`: the “hERG current change (%, negative = inhibition) at 10uM” value amounted to 11.9%.

In the case of `Cc1c(CCO)c(=O)n(-c2ccccc2)n1S(=O)(=O)c1c(Cl)cc(Cl)cc1Cl`, the “hERG current change (%, negative = inhibition) at 10uM” value is listed as -4.12%.

As to `O=C(NCCn1cc(SCc2ccc(F)cc2)c2ccccc21)c1c(F)cccc1F`, the “hERG current change (%, negative = inhibition) at 10uM” value came out at 9.31%.

On to `CC(=O)O.O=c1/c(=C/c2ccc(O)cc2)sc2n1CCCN=2`, for which the “hERG current change (%, negative = inhibition) at 10uM” value was -12.6%.

Take `Cc1nc(SCC(=O)Nc2ccccc2C(F)(F)F)c(C#N)c(C)c1CC(=O)c1ccc(Br)cc1`: the “hERG current change (%, negative = inhibition) at 10uM” value was 25%.

Regarding `O=C(Nc1ccccc1)c1ccc(CN2CCc3ccccc3C2)cc1`, the “hERG current change (%, negative = inhibition) at 10uM” value came out at 21.7%.

On to `CCc1ccc(CNC(=O)CCC(=O)N2Cc3cccc(OC)c3Oc3ncccc32)cc1`, for which the “hERG current change (%, negative = inhibition) at 10uM” value is given as -75%.

Consider `CC(=O)c1ccc(NC(=S)NC(=O)CC(C)C)cc1`, for which the “hERG current change (%, negative = inhibition) at 10uM” value is listed as 17.9%.

Turning to `COc1ccccc1-c1oc2ccccc2c1C#CC(C)(C)O`, the “hERG current change (%, negative = inhibition) at 10uM” value came out at 10.5%.

As for `CN(C)c1nc(-c2ccccc2)nnc1C(F)(F)F`, the “hERG current change (%, negative = inhibition) at 10uM” value is given as 6.39%.

In the case of `CC(=O)c1cccc(N(CC(=O)N2CCCCC2)S(C)(=O)=O)c1`, the “hERG current change (%, negative = inhibition) at 10uM” value is listed as -6.16%.

As for `CCCCc1c(O)nc(SCC(=O)c2ccccc2)n(-c2ccccc2)c1=O`, the “hERG current change (%, negative = inhibition) at 10uM” value stood at 14.6%.

`Cc1noc(C)c1CCC(=O)N1CCCC(CCC(=O)NCc2ccccc2F)C1` (stereo not drawn): the “hERG current change (%, negative = inhibition) at 10uM” value is 8.33%.

As for `O=C(NCC(=O)N(Cc1ccccc1)C(C(=O)NC1CCCC1)c1ccco1)c1ccco1` (stereo not drawn), the “hERG current change (%, negative = inhibition) at 10uM” value was -22.4%.

In the case of `CCOC(=O)c1nn(-c2ccccc2)c(=O)cc1OCC(=O)Nc1cccc(OC)c1`, the “hERG current change (%, negative = inhibition) at 10uM” value is 2.93%.

As to `CCCOc1ccc(N2CC(C(=O)Nc3ccccc3C(=O)NC)CC2=O)cc1` (stereo not drawn), the “hERG current change (%, negative = inhibition) at 10uM” value is reported as -71.8%.

For `COc1ccc(C(=O)NC(=S)Nc2ccc(Cl)cn2)cc1OC`, the “hERG current change (%, negative = inhibition) at 10uM” value worked out at 19.1%.

Take `CCOc1cc(C(=S)N2CCC(O)CC2)ccc1OS(=O)(=O)c1ccc(Br)cc1`: the “hERG current change (%, negative = inhibition) at 10uM” value is recorded as -1.17%.

On to `Cc1cc(C)n(CCN(C)Cc2cn[nH]c2-c2ccc(F)cc2F)n1`, for which the “hERG current change (%, negative = inhibition) at 10uM” value was -3.2%.

As to `COc1cc(CNC2CCCC2)cc(OC)c1OC.Cl`, the “hERG current change (%, negative = inhibition) at 10uM” value is recorded as 5.91%.

As to `COc1ccc(NC(=O)C2CCN(S(=O)(=O)c3c(C)noc3C)CC2)cc1Cl`, the “hERG current change (%, negative = inhibition) at 10uM” value is recorded as 0.74%.

Turning to `COc1cccc(OCC(O)CN2CCN(c3ccccc3)CC2)c1.Cl` (stereo not drawn), the “hERG current change (%, negative = inhibition) at 10uM” value is -43.4%.

Turning to `O=C(Nc1cccc(Cl)c1)OCc1cnc(Cl)s1`, the “hERG current change (%, negative = inhibition) at 10uM” value was -1.8%.

In the case of `CCn1cc(S(=O)(=O)NC(C)c2cc(OC)ccc2OC)cn1` (stereo not drawn), the “hERG current change (%, negative = inhibition) at 10uM” value is given as 1.25%.

On to `CC(C)C(=O)N1N=C2CCCCC2C1(O)C(F)(F)F` (stereo not drawn), for which the “hERG current change (%, negative = inhibition) at 10uM” value is on record as 15.1%.

As to `Cc1ccc(SCC(=O)OCC(=O)NC2(C#N)CCCCC2)cc1`, the “hERG current change (%, negative = inhibition) at 10uM” value is -3.35%.

Consider `COc1ccc(NC(=O)c2ccccc2)cc1NS(=O)(=O)c1ccc(F)cc1`, for which the “hERG current change (%, negative = inhibition) at 10uM” value is -6.06%.

For `CCCCn1c(N2CCC(Cc3ccccc3)CC2)nc2c1c(=O)[nH]c(=O)n2C`, the “hERG current change (%, negative = inhibition) at 10uM” value was -49.4%.

Take `O=c1[nH]c2cnccc2n1-c1ccccc1`: the “hERG current change (%, negative = inhibition) at 10uM” value is listed as 9.04%.

Take `COc1ccc2nc(NC(=O)c3cccnc3SC)sc2c1`: the “hERG current change (%, negative = inhibition) at 10uM” value was 14.4%.

As for `O=C(Nc1cnn(Cc2c(Cl)cccc2Cl)c1)C(c1ccccc1)c1ccccc1`, the “hERG current change (%, negative = inhibition) at 10uM” value is listed as 1.08%.

`c1ccc(-c2nnn(C34CC5CC(CC(C5)C3)C4)n2)cc1`: the “hERG current change (%, negative = inhibition) at 10uM” value was determined as 0.389%.

Take `CN(C)C(=O)COc1ccc(Br)cc1`: the “hERG current change (%, negative = inhibition) at 10uM” value stood at 2.6%.

Regarding `O=C(NCc1ccc2c(c1)OCO2)C(C(=O)c1ccccc1)n1cc(Cl)ccc1=O` (stereo not drawn), the “hERG current change (%, negative = inhibition) at 10uM” value was 12.4%.

Turning to `C=CCOc1ccc(/C=C/C(=O)OCc2csc(CC(=O)Nc3ccccc3C)n2)cc1`, the “hERG current change (%, negative = inhibition) at 10uM” value is listed as 19%.

As for `CSCCC(N=C1NS(=O)(=O)c2ccccc21)C(=O)N1CCCC(C(N)=O)C1` (stereo not drawn), the “hERG current change (%, negative = inhibition) at 10uM” value is 4.07%.

For `c1ccc(-c2cn3nc(-c4ccccc4)c(-c4ccccc4)nc3n2)cc1`, the “hERG current change (%, negative = inhibition) at 10uM” value amounted to 5.34%.

Regarding `CCn1c(SCC(=O)Nc2ccc(OCc3ccccc3)cc2)nnc1-c1ccco1`, the “hERG current change (%, negative = inhibition) at 10uM” value is -0.171%.
